The results in this text go back to PMC6212790.

The list shows a part of the results. At the low end of the ranking the order means little.

The assay has as its target T1, GST-Rok (full length) (UniProt O34857).
T1 sequence: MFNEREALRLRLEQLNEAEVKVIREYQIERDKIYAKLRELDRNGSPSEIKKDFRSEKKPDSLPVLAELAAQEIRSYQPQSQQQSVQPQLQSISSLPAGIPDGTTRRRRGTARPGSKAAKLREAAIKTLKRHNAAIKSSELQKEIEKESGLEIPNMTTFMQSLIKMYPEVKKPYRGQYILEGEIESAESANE
Kind of assay: protein binding microarray.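 Note: rank score from −0.5 (least bound) to 0.5 (best bound).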 As to conditions: Rok is a gene silencer of Bacillus subtilis; high values mean tight binding; most listed sequences are background and not binding sites; double strand, one strand shown.
In turn, GGAGGCCC showed a binding signal of -0.372 E-score.
For the sequence ACGGTAGG, the binding signal amounted to 0.137 E-score.
On to GATGGGGC, for which the binding signal is -0.255 E-score.
In turn, GGATAGCC registered a binding signal of -0.165 E-score.
Regarding GGTATTGA, the binding signal was 0.0438 E-score.
On to CCAGAAGC, for which the binding signal was -0.122 E-score.
The sequence CCTAAACG registered a binding signal of -0.104 E-score.
In turn, GATATAAC showed a binding signal of 0.293 E-score.
CCTTCCAA came in with a binding signal of -0.213 E-score.
CGCCTGCA had a binding signal of -0.254 E-score.
Next, CGCTTTTC: 0.046 E-score; ATGGTTTA: 0.205 E-score; AACAGGGA: -0.18 E-score.
Consider CACCGTAA, for which the binding signal was 0.0521 E-score.
For the sequence ACATTTCA, the binding signal was 0.146 E-score.
As to CGGGGCAG, the binding signal was -0.383 E-score.
Consider CAGGCTAC, for which the binding signal was determined as 0.00117 E-score.
As to GAGCCTGA, the binding signal was -0.264 E-score.
Regarding AGGCACGC, the binding signal was -0.285 E-score.
Under CACCGTCG stands -0.29 E-score.
Under GACGAGTA stands 0.0347 E-score; under AGGTTGAT, -0.0391 E-score.
Under CGTCCGCA stands -0.223 E-score.
On to GATCGACC, for which the binding signal amounted to 0.156 E-score.
As for GATACCCA, the binding signal was determined as 0.0218 E-score.
GCGTTGTA displayed a binding signal of 0.0833 E-score.
With CCGATGAG, the binding signal is -0.123 E-score.
Consider ACTCCACT, for which the binding signal was -0.0107 E-score.
With GTGGTGCA, the binding signal is -0.0785 E-score.
Turning to ACTTATCT, the binding signal amounted to 0.251 E-score.
For AGACCTCA, the binding signal was -0.243 E-score.
ACGGATCC had a binding signal of -0.0665 E-score.
In turn, GGTGCCAA displayed a binding signal of -0.118 E-score.
The sequence GAGCACCC came in with a binding signal of -0.186 E-score.
Sequence GCCACTAA displayed a binding signal of -0.0623 E-score.
In turn, GCGTGTAA came in with a binding signal of 0.0414 E-score.
AGTCCCAA yielded a binding signal of -0.145 E-score.
Under AGGTATGG stands -0.0734 E-score; under CCTCTGAC, -0.143 E-score; under CACGCCCG, -0.312 E-score.
Consider GGGAAGAC, for which the binding signal was -0.284 E-score.
With AAGGTTCA, the binding signal was -0.0838 E-score.
In turn, CAGTCACC gave a binding signal of -0.156 E-score.
AAGACGTG yielded a binding signal of -0.092 E-score.
With ACGGTCCA, the binding signal was -0.0889 E-score.
ATGCGAAA gave a binding signal of 0.165 E-score.
Consider GCCATGAC, for which the binding signal is -0.165 E-score.
Consider TATGCTAA, for which the binding signal is 0.229 E-score.
As to AATTCCAG, the binding signal worked out at 0.13 E-score.
Sequence AATGGCGC gave a binding signal of -0.0113 E-score.
As for AAGCAGAA, the binding signal turned out to be 0.142 E-score.
AATCTCCA registered a binding signal of 0.12 E-score.
For CGCATCAA, the binding signal worked out at 0.0185 E-score.
For the sequence AAAGTCCT, the binding signal was -0.139 E-score.
CCCTAATA gave a binding signal of -0.151 E-score.
Next, ACATACAA: 0.312 E-score.
As to AGGCAGCG, the binding signal is -0.0852 E-score.
Consider ATATGCGC, for which the binding signal worked out at 0.256 E-score.
CGCTTCCC yielded a binding signal of -0.243 E-score.
Turning to ACCCCAAA, the binding signal is -0.151 E-score.
In turn, TTCACGAA registered a binding signal of -0.0124 E-score.
CCTCTTAA displayed a binding signal of -0.235 E-score.
Turning to AGTAAACA, the binding signal stood at 0.0694 E-score.
Consider CAAGTGTC, for which the binding signal was -0.0185 E-score.
CCGGTACC: the binding signal is -0.0284 E-score.
Sequence ATCCAGTG gave a binding signal of -0.172 E-score.
Under CGTTTCAA stands -0.0365 E-score; under AAAATTGC, 0.228 E-score; under AACAAGCG, -0.0304 E-score.
With CCTTTTCA, the binding signal was -0.222 E-score.
Sequence TCACGTAA showed a binding signal of 0.0949 E-score.
Sequence ACCCGAAT returned a binding signal of -0.0449 E-score.
CAGATCTG came in with a binding signal of 0.0192 E-score.
For the sequence CCACGTCG, the binding signal is -0.199 E-score.
In turn, AGATAAGG came in with a binding signal of 0.0533 E-score.
Take TACGTAAA: the binding signal was determined as 0.208 E-score.
Next, CTGGTTAC: 0.117 E-score; CACACCTC: -0.0439 E-score.
Consider ATCGTCCG, for which the binding signal is -0.0152 E-score.
Next, TATTCCAA: 0.23 E-score; GGTAACGA: 0.0762 E-score; GTTGAGAA: 0.0912 E-score.
Next, CGTTAGGC: -0.211 E-score; CATTATCA: 0.323 E-score.
Next, CCGTCGAC: -0.217 E-score.
ACCCGCTG showed a binding signal of -0.265 E-score.
For the sequence CTTTTTTA, the binding signal is -0.116 E-score.
Sequence GAACGTAC came in with a binding signal of 0.122 E-score.
Turning to TAATGTCA, the binding signal is 0.17 E-score.
CAAGGCGA returned a binding signal of -0.302 E-score.
Sequence ATGTGCCC yielded a binding signal of 0.0198 E-score.
In turn, GGGTTACA showed a binding signal of -0.0277 E-score.
Sequence TAGCGTGA had a binding signal of 0.12 E-score.
Under CCGTTGCG stands -0.168 E-score; under AGTTCTCG, 0.0719 E-score.
For the sequence CTCCCAAG, the binding signal was -0.39 E-score.
Next, AGCAGGCG: -0.199 E-score.
CGCAGGCG came in with a binding signal of -0.345 E-score.
With ATATTGAA, the binding signal is 0.246 E-score.
TGAGTCAA came in with a binding signal of -0.0233 E-score.
As to CGGGCCCC, the binding signal is -0.461 E-score.
Next, CAACGTAA: 0.045 E-score; ATGTCTGA: -4.21e-05 E-score; AGAGTACT: 0.165 E-score.
CGGACCCC registered a binding signal of -0.414 E-score.
CCGGCAAG had a binding signal of -0.144 E-score.
Consider CAGGCAAC, for which the binding signal was 0.0224 E-score.
Next, GTAAGGCA: -0.0457 E-score; CGTAAAAA: 0.0957 E-score.
Next, CTTAGCCC: -0.215 E-score; ACGCGACA: -0.0894 E-score; GACACGTC: -0.127 E-score.
Consider AGGCTAGC, for which the binding signal is -0.0469 E-score.
Next, ACGATCGA: 0.197 E-score; CCTAGGAC: -0.0373 E-score.
CATATGAA displayed a binding signal of 0.0706 E-score.
In turn, AGAGAAGA showed a binding signal of 0.0708 E-score.
For ACAAGAAC, the binding signal amounted to 0.0914 E-score.
With ACCCACGT, the binding signal was -0.101 E-score.
ATGAGCAT: the binding signal is -0.176 E-score.
Next, GCTGCGTA: -0.0538 E-score; CGAGTGAA: -0.0229 E-score.
ACATATTA registered a binding signal of 0.345 E-score.
Next, ATTCTCTC: -0.119 E-score; AGGAAGCC: -0.192 E-score; ATTCGGAA: 0.235 E-score.
Take CCGCCACC: the binding signal was -0.305 E-score.
In the case of ATCCTTAA, the binding signal came out at 0.0302 E-score.
Turning to CCACGAAA, the binding signal was -0.0137 E-score.
The sequence CACAAGTC gave a binding signal of -0.214 E-score.
Sequence GAACTCAC returned a binding signal of 0.0902 E-score.
Under ATCTGTGA stands -0.12 E-score.
CCTGTGCG: the binding signal is -0.299 E-score.
In the case of AAGAGCGT, the binding signal was -0.0692 E-score.
Regarding AGGCCAAC, the binding signal is -0.0771 E-score.
AATTGGAG gave a binding signal of 0.152 E-score.
With CCTAAATA, the binding signal turned out to be 0.288 E-score.
Sequence AGCCTTCA gave a binding signal of -0.227 E-score.
The sequence GTAATGAA gave a binding signal of -0.0724 E-score.
GGTCAGCA displayed a binding signal of -0.194 E-score.
On to ACACGCAG, for which the binding signal is -0.3 E-score.
Under GTCGGCGA stands -0.166 E-score; under CGTATGAG, 0.0203 E-score; under TAACACCA, 0.0451 E-score.
CCTTAGCA had a binding signal of -0.152 E-score.
CACTGACG: the binding signal was -0.00725 E-score.
Next, ATCCGCCA: -0.347 E-score; ACAGACCT: -0.218 E-score.
Next, CACCCGAG: -0.167 E-score; CACGTGCA: -0.109 E-score; AAGTACGA: 0.192 E-score.
As to CACGGAGA, the binding signal turned out to be 0.0382 E-score.
With GCTAAACA, the binding signal is -0.0536 E-score.
CGGGGGGA gave a binding signal of -0.39 E-score.
The sequence CGTTCAAG gave a binding signal of -0.124 E-score.
ATAGCCCG gave a binding signal of -0.106 E-score.
The sequence AAAAACAT registered a binding signal of 0.2 E-score.
Next, TCGACTCA: 0.128 E-score; GATATTGC: 0.0457 E-score; ACAGTGGA: -0.0353 E-score.
Consider CTTGTACA, for which the binding signal was 0.187 E-score.
On to CGAAAAGA, for which the binding signal was determined as 0.00822 E-score.
Next, ATAGCTGA: 0.159 E-score; CTAAATAA: 0.251 E-score.
Next, GGGAGACA: -0.322 E-score.
CAGCACTA registered a binding signal of -0.0863 E-score.
As for ATATCGAC, the binding signal was 0.191 E-score.
In turn, AATGTCAA returned a binding signal of -0.0246 E-score.
Under AGATTACA stands 0.108 E-score; under TAAATTGA, 0.23 E-score; under AGTATGAG, -0.0193 E-score.
With GAGTACCA, the binding signal was -0.0678 E-score.
